# Hit rate of the full screen: of about 310,000 compounds, about 14,000 (4.5%) showed an effect of 50% or more. The effect is printed as a negative number. This is one part of the list.
# Target: human ether-à-go-go-related gene (hERG) potassium channel (human, UniProt Q12809)
# Assay: primary screen, population patch clamp on CHO cells stably expressing hERG
# 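Note: peak tail current of the secondary pulse compared with the same well before compound.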
# Chain of human ether-à-go-go-related gene (hERG) potassium channel (Q12809 whole entry, looked up): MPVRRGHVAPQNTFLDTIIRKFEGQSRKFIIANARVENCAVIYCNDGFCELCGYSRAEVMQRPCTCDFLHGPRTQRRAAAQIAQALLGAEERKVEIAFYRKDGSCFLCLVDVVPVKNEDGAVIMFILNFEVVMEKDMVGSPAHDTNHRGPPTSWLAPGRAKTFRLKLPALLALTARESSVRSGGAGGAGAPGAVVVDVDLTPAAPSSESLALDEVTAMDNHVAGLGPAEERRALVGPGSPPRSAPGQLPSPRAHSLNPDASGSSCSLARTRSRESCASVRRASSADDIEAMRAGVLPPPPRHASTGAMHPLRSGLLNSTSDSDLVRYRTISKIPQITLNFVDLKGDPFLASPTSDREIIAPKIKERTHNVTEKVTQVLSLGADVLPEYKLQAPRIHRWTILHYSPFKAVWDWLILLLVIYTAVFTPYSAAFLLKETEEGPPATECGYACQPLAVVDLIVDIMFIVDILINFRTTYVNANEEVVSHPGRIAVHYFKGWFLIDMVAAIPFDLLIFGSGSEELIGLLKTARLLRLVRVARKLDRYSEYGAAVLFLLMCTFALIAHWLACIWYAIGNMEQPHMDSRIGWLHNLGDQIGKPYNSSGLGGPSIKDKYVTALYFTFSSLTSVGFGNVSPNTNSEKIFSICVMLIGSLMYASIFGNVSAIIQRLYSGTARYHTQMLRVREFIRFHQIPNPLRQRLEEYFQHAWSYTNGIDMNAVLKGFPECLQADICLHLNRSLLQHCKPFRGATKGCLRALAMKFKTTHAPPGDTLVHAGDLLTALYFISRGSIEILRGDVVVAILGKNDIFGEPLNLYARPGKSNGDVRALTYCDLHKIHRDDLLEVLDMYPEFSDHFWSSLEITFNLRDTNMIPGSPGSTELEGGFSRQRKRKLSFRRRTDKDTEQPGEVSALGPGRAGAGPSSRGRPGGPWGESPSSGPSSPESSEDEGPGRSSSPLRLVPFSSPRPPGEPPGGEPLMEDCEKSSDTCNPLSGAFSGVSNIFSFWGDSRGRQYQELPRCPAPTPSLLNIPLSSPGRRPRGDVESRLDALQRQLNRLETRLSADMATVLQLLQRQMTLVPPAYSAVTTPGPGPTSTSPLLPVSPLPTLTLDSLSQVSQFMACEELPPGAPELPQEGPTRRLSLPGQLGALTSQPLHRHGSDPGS
row,SMILES,"hERG current change (%, negative = inhibition) at 10uM [%]"
1,CCCCCCCNC(=O)C1(CC2CC(c3ccccc3)=NO2)CCNCC1 (centres unmarked),-58.8
2,O=C(Nc1ccc2c(c1)OCCO2)c1ccccn1,17
3,O=C(CCCOc1ccc(Cl)cc1Cl)N/N=C/c1ccccc1O,53.6
4,CN(C)/C=C(/C(=O)c1ccc(Cl)c(Cl)c1)c1nnnn1-c1ccccc1,9.85
5,COc1ccc(-c2nc(NC(C)=O)sc2-c2ccc(OC)cc2)cc1,25.4
6,COc1ccc(C(=O)Nc2ccc(NC(=O)C3CCCCC3)nc2)cc1,27.2
7,COc1ccc(Cc2nnc(NC(=O)C3CC(=O)N(c4ccc(OC)cc4)C3)s2)cc1 (centres unmarked),8.2
8,O=C(O)CCCCC1CCSS1 (centres unmarked),7.97
9,COc1ccc(C(=O)Nc2ccc(O)cc2C(=O)O)cc1,19.1
10,CCN(CC(=O)NC1CCS(=O)(=O)C1)C(=O)C(c1ccccc1)c1ccccc1 (centres unmarked),-2.13
11,COC(=O)N/N=C/c1cccc(OCCSc2ccc(Cl)cc2)c1,11.5
12,O=C(Nc1ccc(OCC(=O)N2CCOCC2)cc1)c1ccccc1Cl,2.36
13,O=C1NCN(c2ccccc2)C12CCNCC2,3.05
14,CCCCn1nnc(NC(=O)Cc2ccc(Cl)cc2)n1,-16.6
15,CCCCOC(=S)NC(=O)c1sc2ccccc2c1Cl,0.519
16,Cc1cc(C2=NNC(=NCCc3ccccc3)SC2)c(C)n1CC1CCCO1 (centres unmarked),-40.5
17,Cl.Oc1cccc(CN2CCCCC2)c1,-1.76
18,CC(C)(C)c1cc(NCCCn2ccnc2)n2ncc(-c3ccccc3)c2n1,-18
19,COc1cc(/C=N/NC(=O)CN2CC(c3ccccc3)CC2=O)ccc1OC(=O)N(C)C (centres unmarked),-4
20,O=C(Cn1nc(-c2ccccc2)ccc1=O)NCCN1CCN(Cc2ccccc2)CC1,-19.1
21,Cc1nn(Cc2ccccc2)c(Cl)c1C(=O)OCC#N,-4.65
22,CC(C)(C)c1ccc(-c2conc2N)cc1,5.58
23,CCc1ccc(NC(=O)c2cc(S(=O)(=O)N3CCCC3)c[nH]2)cc1,9.7
24,CCOC(=O)c1c(NC(=O)CN2C(=O)NC3(CCC(CC)CC3)C2=O)sc(C)c1-c1ccc(C)cc1 (centres unmarked),2.08
25,CCOc1cc(C(=O)NC(C)Cc2cccs2)cc(OCC)c1OCC (centres unmarked),7.63
26,CCCCNC(=O)CS(=O)Cc1nc(-c2cccc(C)c2)oc1C (centres unmarked),-5.91

# Source: article PMC4336329 (PLoS ONE, 2015)
